In the supplement of paper PMC8728848:
This is one part of the list.

Experiments:
Assay in all cases: glycan array binding signal (z-score within array); higher = stronger binding
Settings in all cases: glycan notation: IUPAC condensed, linker removed
[1] = target: Glc(b1-4)Glc
Procedure, shortened: (§1)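 Negative Z-scores can be read as non-binding. The Z-score is calculated within each array and then averaged across arrays of one protein sequence at different concentrations or buffers and across linkers. Arrays, 3228 in all, were curated from the Consortium for Functional Glycomics database and kept only where the protein sequence was available.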

[2] = target: Glc(b1-6)Glc
Procedure, shortened: as §1

[3] = target: GlcA(b1-3)Gal
Procedure, shortened: as §1

[4] = target: GlcA(b1-3)GlcNAc
Procedure, shortened: as §1

[5] = target: GlcA(b1-6)Gal
Procedure, shortened: as §1

[6] = target: GlcA3S(b1-3)Gal(b1-4)GlcNAc(b1-2)Man
Procedure, shortened: as §1

[7] = target: GlcA3S(b1-3)Gal(b1-4)GlcNAc(b1-3)Gal(b1-4)Glc
Procedure, shortened: as §1

[8] = target: GlcNAc(a1-3)Gal(b1-4)GlcNAc
Procedure, shortened: as §1

[9] = target: GlcNAc(a1-4)Gal(b1-3)GlcNAc
Procedure, shortened: as §1

[10] = target: GlcNAc(a1-4)Gal(b1-4)GalNAc
Procedure, shortened: as §1

[11] = target: GlcNAc(a1-4)Gal(b1-4)GlcNAc
Procedure, shortened: as §1

[12] = target: GlcNAc(a1-4)Gal(b1-4)GlcNAc(b1-3)Gal(b1-4)Glc
Procedure, shortened: as §1

[13] = target: GlcNAc(a1-4)Gal(b1-4)GlcNAc(b1-3)Gal(b1-4)GlcNAc
Procedure, shortened: as §1

[14] = target: GlcNAc(a1-4)Gal(b1-4)GlcNAc(b1-3)Gal(b1-4)GlcNAc(b1-3)Gal(b1-4)GlcNAc
Procedure, shortened: as §1

[15] = target: GlcNAc(a1-4)Gal(b1-4)GlcNAc(b1-3)Gal(b1-4)[Fuc(a1-3)]GlcNAc(b1-3)Gal(b1-4)[Fuc(a1-3)]GlcNAc
Procedure, shortened: as §1

[16] = target: GlcNAc(a1-6)Gal(b1-4)GlcNAc
Procedure, shortened: as §1

[17] = target: GlcNAc(b1-2)Gal(b1-3)GalNAc
Procedure, shortened: as §1

[18] = target: GlcNAc(b1-2)Man(a1-3)[GlcNAc(b1-2)Man(a1-6)]Man(b1-4)GlcNAc(b1-4)GlcNAc
Procedure, shortened: as §1

[19] = target: GlcNAc(b1-2)Man(a1-3)[GlcNAc(b1-2)Man(a1-6)]Man(b1-4)GlcNAc(b1-4)[Fuc(a1-6)]GlcNAc
Procedure, shortened: as §1

[20] = target: GlcNAc(b1-2)Man(a1-3)[GlcNAc(b1-4)][GlcNAc(b1-2)Man(a1-6)]Man(b1-4)GlcNAc(b1-4)GlcNAc
Procedure, shortened: as §1

[21] = target: GlcNAc(b1-2)Man(a1-3)[GlcNAc(b1-4)][GlcNAc(b1-2)Man(a1-6)]Man(b1-4)GlcNAc(b1-4)[Fuc(a1-6)]GlcNAc
Procedure, shortened: as §1

[22] = target: GlcNAc(b1-2)[GlcNAc(b1-4)]Man(a1-3)[GlcNAc(b1-2)Man(a1-6)]Man(b1-4)GlcNAc(b1-4)GlcNAc
Procedure, shortened: as §1

[23] = target: GlcNAc(b1-2)[GlcNAc(b1-4)]Man(a1-3)[GlcNAc(b1-4)][GlcNAc(b1-2)Man(a1-6)]Man(b1-4)GlcNAc(b1-4)GlcNAc
Procedure, shortened: as §1

[24] = target: GlcNAc(b1-2)[GlcNAc(b1-4)]Man(a1-3)[GlcNAc(b1-4)][GlcNAc(b1-2)[GlcNAc(b1-6)]Man(a1-6)]Man(b1-4)GlcNAc(b1-4)GlcNAc
Procedure, shortened: as §1

[25] = target: GlcNAc(b1-2)[GlcNAc(b1-4)]Man(a1-3)[GlcNAc(b1-4)][GlcNAc(b1-2)[GlcNAc(b1-6)]Man(a1-6)]Man(b1-4)GlcNAc(b1-4)[Fuc(a1-6)]GlcNAc
Procedure, shortened: as §1

[26] = target: GlcNAc(b1-2)[GlcNAc(b1-6)]Man(a1-6)[GlcNAc(b1-2)Man(a1-3)]Man(b1-4)GlcNAc(b1-4)GlcNAc
Procedure, shortened: as §1

[27] = target: GlcNAc(b1-2)[GlcNAc(b1-6)]Man(a1-6)[GlcNAc(b1-2)Man(a1-3)]Man(b1-4)GlcNAc(b1-4)[Fuc(a1-6)]GlcNAc
Procedure, shortened: as §1

[28] = target: GlcNAc(b1-2)[GlcNAc(b1-6)]Man(a1-6)[GlcNAc(b1-4)][GlcNAc(b1-2)Man(a1-3)]Man(b1-4)GlcNAc(b1-4)GlcNAc
Procedure, shortened: as §1

[29] = target: GlcNAc(b1-3)Fuc
Procedure, shortened: as §1

[30] = target: GlcNAc(b1-3)Gal
Procedure, shortened: as §1

[31] = target: GlcNAc(b1-3)Gal(b1-3)GalNAc
Procedure, shortened: as §1

[32] = target: GlcNAc(b1-3)Gal(b1-4)Glc
Procedure, shortened: as §1

[33] = target: GlcNAc(b1-3)Gal(b1-4)GlcNAc
Procedure, shortened: as §1

[34] = target: GlcNAc(b1-3)Gal(b1-4)GlcNAc(b1-2)Man(a1-3)[GlcNAc(b1-3)Gal(b1-4)GlcNAc(b1-2)Man(a1-6)]Man(b1-4)GlcNAc(b1-4)GlcNAc
Procedure, shortened: as §1

[35] = target: GlcNAc(b1-3)Gal(b1-4)GlcNAc(b1-2)Man(a1-3)[GlcNAc(b1-3)Gal(b1-4)GlcNAc(b1-2)Man(a1-6)]Man(b1-4)GlcNAc(b1-4)[Fuc(a1-6)]GlcNAc
Procedure, shortened: as §1

[36] = target: GlcNAc(b1-3)Gal(b1-4)GlcNAc(b1-2)[GlcNAc(b1-3)Gal(b1-4)GlcNAc(b1-6)]Man(a1-6)[GlcNAc(b1-3)Gal(b1-4)GlcNAc(b1-2)Man(a1-3)]Man(b1-4)GlcNAc(b1-4)GlcNAc
Procedure, shortened: as §1

[37] = target: GlcNAc(b1-3)Gal(b1-4)GlcNAc(b1-3)Gal(b1-4)GlcNAc
Procedure, shortened: as §1

[38] = target: GlcNAc(b1-3)Gal(b1-4)GlcNAc(b1-3)Gal(b1-4)GlcNAc(b1-2)Man(a1-3)[GlcNAc(b1-3)Gal(b1-4)GlcNAc(b1-3)Gal(b1-4)GlcNAc(b1-2)Man(a1-6)]Man(b1-4)GlcNAc(b1-4)GlcNAc
Procedure, shortened: as §1

[39] = target: GlcNAc(b1-3)Gal(b1-4)GlcNAc(b1-3)Gal(b1-4)GlcNAc(b1-2)Man(a1-3)[GlcNAc(b1-3)Gal(b1-4)GlcNAc(b1-3)Gal(b1-4)GlcNAc(b1-2)Man(a1-6)]Man(b1-4)GlcNAc(b1-4)[Fuc(a1-6)]GlcNAc
Procedure, shortened: as §1

[40] = target: GlcNAc(b1-3)Gal(b1-4)GlcNAc(b1-3)Gal(b1-4)GlcNAc(b1-2)[GlcNAc(b1-3)Gal(b1-4)GlcNAc(b1-3)Gal(b1-4)GlcNAc(b1-6)]Man(a1-6)[GlcNAc(b1-3)Gal(b1-4)GlcNAc(b1-3)Gal(b1-4)GlcNAc(b1-2)Man(a1-3)]Man(b1-4)GlcNAc(b1-4)[Fuc(a1-6)]GlcNAc
Procedure, shortened: as §1

[41] = target: GlcNAc(b1-3)Gal(b1-4)GlcNAc(b1-3)Gal(b1-4)GlcNAc(b1-3)Gal(b1-4)GlcNAc(b1-2)Man(a1-3)[GlcNAc(b1-3)Gal(b1-4)GlcNAc(b1-3)Gal(b1-4)GlcNAc(b1-3)Gal(b1-4)GlcNAc(b1-2)Man(a1-6)]Man(b1-4)GlcNAc(b1-4)GlcNAc
Procedure, shortened: as §1

[42] = target: GlcNAc(b1-3)Gal(b1-4)GlcNAc(b1-3)Gal(b1-4)GlcNAc(b1-3)Gal(b1-4)GlcNAc(b1-2)Man(a1-3)[GlcNAc(b1-3)Gal(b1-4)GlcNAc(b1-3)Gal(b1-4)GlcNAc(b1-3)Gal(b1-4)GlcNAc(b1-2)Man(a1-6)]Man(b1-4)GlcNAc(b1-4)[Fuc(a1-6)]GlcNAc
Procedure, shortened: as §1

[43] = target: GlcNAc(b1-3)Gal(b1-4)GlcNAc(b1-3)Gal(b1-4)GlcNAc(b1-3)Gal(b1-4)GlcNAc(b1-2)[GlcNAc(b1-3)Gal(b1-4)GlcNAc(b1-3)Gal(b1-4)GlcNAc(b1-3)Gal(b1-4)GlcNAc(b1-6)]Man(a1-6)[GlcNAc(b1-3)Gal(b1-4)GlcNAc(b1-3)Gal(b1-4)GlcNAc(b1-3)Gal(b1-4)GlcNAc(b1-2)Man(a1-3)]Man(b1-4)GlcNAc(b1-4)[Fuc(a1-6)]GlcNAc
Procedure, shortened: as §1

[44] = target: GlcNAc(b1-3)Gal(b1-4)GlcNAc(b1-3)Gal(b1-4)GlcNAc(b1-3)Gal(b1-4)GlcNAc(b1-3)Gal(b1-4)GlcNAc(b1-2)Man(a1-3)[GlcNAc(b1-3)Gal(b1-4)GlcNAc(b1-3)Gal(b1-4)GlcNAc(b1-3)Gal(b1-4)GlcNAc(b1-3)Gal(b1-4)GlcNAc(b1-2)Man(a1-6)]Man(b1-4)GlcNAc(b1-4)GlcNAc
Procedure, shortened: as §1

[45] = target: GlcNAc(b1-3)Gal(b1-4)GlcNAc(b1-3)Gal(b1-4)GlcNAc(b1-3)Gal(b1-4)GlcNAc(b1-3)Gal(b1-4)GlcNAc(b1-2)Man(a1-3)[GlcNAc(b1-3)Gal(b1-4)GlcNAc(b1-3)Gal(b1-4)GlcNAc(b1-3)Gal(b1-4)GlcNAc(b1-3)Gal(b1-4)GlcNAc(b1-2)Man(a1-6)]Man(b1-4)GlcNAc(b1-4)[Fuc(a1-6)]GlcNAc
Procedure, shortened: as §1

B1: Clec2 (Mus musculus), Q9JL99 (protein)
chain: MQDEDGYITLNIKPRKQALSSAEPASSWWRVMALVLLISSMGLVVGLVALGIMSVTQQKYLLAEKENLSATLQQLAKKFCQELIRQSEIKTKSTFEHKCSPCATKWRYHGDSCYGFFRRNLTWEESKQYCTEQNATLVKTASQSTLDYIAERITSVRWIGLSRQNSKKDWMWEDSSVLRKNGINLSGNTEENMNCAYLHNGKIHPASCKERHYLICERNAGMTRVDQLL
- glycan array binding signal (z-score) [1]: 0.651
- glycan array binding signal (z-score) [2]: 0.19
- glycan array binding signal (z-score) [3]: 0.411
- glycan array binding signal (z-score) [4]: 0.528
- glycan array binding signal (z-score) [5]: 0.294
- glycan array binding signal (z-score) [6]: 1.09
- glycan array binding signal (z-score) [7]: -0.154
- glycan array binding signal (z-score) [8]: -0.539
- glycan array binding signal (z-score) [9]: -0.381
- glycan array binding signal (z-score) [10]: -0.598
- glycan array binding signal (z-score) [11]: -0.797
- glycan array binding signal (z-score) [12]: -0.676
- glycan array binding signal (z-score) [13]: -0.749
- glycan array binding signal (z-score) [14]: -0.7
- glycan array binding signal (z-score) [15]: 0.251
- glycan array binding signal (z-score) [16]: -0.817
- glycan array binding signal (z-score) [17]: -0.226
- glycan array binding signal (z-score) [18]: 0.119
- glycan array binding signal (z-score) [19]: -0.686
- glycan array binding signal (z-score) [20]: -0.678
- glycan array binding signal (z-score) [21]: -0.672
- glycan array binding signal (z-score) [22]: -0.656
- glycan array binding signal (z-score) [23]: -0.453
- glycan array binding signal (z-score) [24]: -0.623
- glycan array binding signal (z-score) [25]: -0.754
- glycan array binding signal (z-score) [26]: -0.182
- glycan array binding signal (z-score) [27]: -0.792
- glycan array binding signal (z-score) [28]: -0.184
- glycan array binding signal (z-score) [29]: -0.65
- glycan array binding signal (z-score) [30]: -0.22
- glycan array binding signal (z-score) [31]: -0.055
- glycan array binding signal (z-score) [32]: -0.466
- glycan array binding signal (z-score) [33]: -0.827
- glycan array binding signal (z-score) [34]: -0.5
- glycan array binding signal (z-score) [35]: -0.399
- glycan array binding signal (z-score) [36]: 0.552
- glycan array binding signal (z-score) [37]: -0.629
- glycan array binding signal (z-score) [38]: 0.288
- glycan array binding signal (z-score) [39]: -0.438
- glycan array binding signal (z-score) [40]: 0.177
- glycan array binding signal (z-score) [41]: -0.124
- glycan array binding signal (z-score) [42]: -0.184
- glycan array binding signal (z-score) [43]: -0.477
- glycan array binding signal (z-score) [44]: -0.158
- glycan array binding signal (z-score) [45]: -0.617
